Source: the supplement of paper PMC3334620
The full ranking holds about 33,000 sequences; the median of “E-score (-0.5 to 0.5)” is about -0.017, and the highest 2% start at about 0.3. The list shows a part of the results.

Target: T1, Sut1 (UniProt P53032)
T1 sequence: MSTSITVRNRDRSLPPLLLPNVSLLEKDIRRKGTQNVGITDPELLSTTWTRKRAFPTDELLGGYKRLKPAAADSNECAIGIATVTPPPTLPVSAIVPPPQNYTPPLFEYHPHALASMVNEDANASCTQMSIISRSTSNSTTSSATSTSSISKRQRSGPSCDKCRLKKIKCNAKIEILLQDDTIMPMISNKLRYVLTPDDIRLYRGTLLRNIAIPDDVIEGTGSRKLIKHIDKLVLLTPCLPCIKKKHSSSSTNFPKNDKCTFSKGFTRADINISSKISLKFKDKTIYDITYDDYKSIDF
Assay: PBM E-score (8-mer binding enrichment) (E-score (-0.5 to 0.5)); higher = stronger / more preferred TF binding; most listed sequences are background and not binding sites
Details: protein concentration: 200 nM; construct: GST-full length
Summary of the method: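 PURExpress in vitro transcription/translation supplied GST-tagged yeast transcription factors, either full-length or DNA-binding domain. Applied at about 100-200 nM to universal all-10-mer Agilent arrays double-stranded by primer extension, the bound protein was detected with fluorescent anti-GST. E-scores, modified Wilcoxon-Mann-Whitney statistics, were given by the Universal PBM Analysis Suite to ungapped eight-base words pooled with their reverse complements after masliner normalisation.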

Sequence | PBM E-score
CCTATCAA | 0.111
CGCAGGAA | -0.166
TACTTAAA | 0.171
CCTAGAAA | 0.184
AGCAAAAG | -0.0977
CTCGATAC | 0.142
AAGTGTAT | 0.0641
AGTGCACG | -0.0643
CGATTGCC | -0.0206
CGCCGCAA | 0.117
CGCTCCTA | -0.0375
ACTTGACT | 0.0376
ATCGCGTC | -0.00961
AGGTTTTA | 0.0564
CAATATGC | -0.0188
ACCAGTTG | 0.0846
AACTCTAT | 0.174
AAATTCGT | 0.161
CTAGTCTA | -0.131
TCCCTGAA | -0.0211
AATCTTTA | 0.214
ACTACTAA | 0.114

Sequence | PBM E-score
CCCGGTAA | 0.0833
CGTGTAAA | -0.0005
AAAAGCTC | 0.163
CGCCACGC | -0.236
CCTTGGTC | -0.102
CTATAGAG | 0.00768
AACCAGGA | -0.0425
CCTAGACC | -0.122
CTACCATA | 0.035
GTGACCAC | -0.138
TAGCAAAA | 0.232
CCCCCCAA | -0.311
GAGGAACA | -0.0116
CCCGTGGA | -0.19
GCGCCTAC | 0.00826
CTGTGACC | -0.246
CCGCCGTA | 0.0395
ACACGCAT | 0.0295
CACCAAAC | -0.0324
ATGCGCTG | -0.121
ATTACTTG | 0.0873
GATCCTTA | -0.0251

Sequence | PBM E-score
GGGTGGGA | -0.222
CTGGATCC | 0.0806
AGAAGGCG | -0.0893
GAACTCTC | 0.113
AATACGGT | -0.0683
GAACCTCA | -0.164
ACTGGTGG | -0.258
GGGTCGGA | 0.292
CTATTACA | 0.147
AAGGGTCC | -0.099
CGAGTGTC | -0.0583
GTGGACAA | 0.206
AACGTCCC | -0.268
TAAGCCCA | -0.058
AAAGGAGC | -0.0321
CACGCTAC | -0.102
GAAGTACA | 0.0804
CGATCGCC | 0.0435
CCAGCTAC | -0.241
ACTAGCCA | -0.047
AAGACTCC | 0.178
AGCGCCTA | 0.0529

Sequence | PBM E-score
CAGCTTTA | 0.123
CGGGTGTC | -0.0842
GGGTTTCA | 0.0794
GCCGGATA | 0.0859
CGCGCTAC | 0.0565
GGTCCCGA | 0.093
AAACTTGG | 0.019
ATAGCCTC | -0.092
TGTCAACA | -0.0993
ACTCGGTG | -0.0621
CAGACAAC | 0.0409
ATGTAACC | 0.0203
CCTACTGA | -0.128
CTCTTTCC | -0.0939
ACACGGAG | 0.409
AACTACAA | 0.251
AGTTCCGG | 0.214
GCCTTACC | -0.211
TGAGTCCA | -0.0909
GAAGCCTC | -0.0682
AATGATGT | 0.212
GGTGCGGA | 0.189

Sequence | PBM E-score
GCACCGTA | 0.0972
ATTCGGAA | 0.262
ACGAACCT | 0.108
CGCACAAA | -0.0299
ATCCAGCG | -0.116
AGGGTACT | -0.181
CTAGTATA | 0.137
AGACTCAT | -0.0488
TAGACATA | 0.125
ACTCAGAG | -0.0771
CGCGCTTC | -0.0484
CGGCTCCC | -0.173
ATTCGGGG | 0.244
ATAAGCTG | -0.14
CACCTGAC | -0.187
CAAGTGGC | -0.0471
TCTCAAAA | 0.078
GCCAAGAA | -0.0155
GGTTAGGA | -0.141
CGGAGCGA | 0.325
AACCATAT | 0.166
ATCGCGCC | -0.101
